In all, about 5,400 compounds went through this assay and about 190 (3.5%) showed an effect of 50% or more. The list shows a part of the results.
Each molecule was assayed on Vero-E6 (assay: primary screen, phospholipidosis by LipidTOX staining; higher = more effect of the substance). Conditions: 10 µM.
In short: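 Single-concentration screen at 10 μM, with DMSO 0.1 v/v % and amiodarone 10 μM as controls. Read-out is LipidTOX Red phospholipid staining, which tolerates aldehyde fixation, in Vero-E6 cells.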

SMILES	result_ITMP [%]
O=C1Nc2ccc(Cl)c3c2C1(CCCCN1CC=C(c2ccc(Cl)cc2)CC1)CCC3 (stereo not drawn)	70.2
Nc1nc2[nH]nnc2c(=O)[nH]1	1.34
NC(=O)c1ncn([C@@H]2O[C@H](CO)[C@@H](O)[C@H]2O)n1	-3.24
CCC(CC)(CC(=O)Nc1cccc(/C=C/c2nc(C3CCC3)cs2)c1)C(=O)O	-1.87
O=C(NCc1ccncc1)C12CC3CC(C1)CC(c1ccc(Cl)cc1)(C3)C2	3.36
CCCCCCCCCCCCCCCCNc1ccc(C(=O)O)cc1	0.86
CCOC(=O)[C@H](CCc1ccccc1)N[C@@H](C)C(=O)N1[C@H](C(=O)O)C[C@@H]2CCC[C@@H]21	-13.1
Nc1nc(=O)n([C@H]2C[C@H](O)[C@@H](CO)O2)cc1F	1.64
CC[C@@]1(O)C(=O)OCc2c1cc1n(c2=O)Cc2cc3c([N+](=O)[O-])cccc3nc2-1	43
CNC(=O)c1ccc(-c2cnc3ncc(Cc4ccc5ncccc5c4)n3n2)cc1F	0.88
CN1CCN(C(=O)C2C(C(=O)O)[C@@H]3CC[C@H]2O3)CC1 (stereo partly drawn)	0.66
Cc1ccc(S(=O)(=O)n2c(N)nc3ccccc32)cc1	-3.34
CC(O)CN1CCN(CC(=O)[O-])CCN(CC(=O)[O-])CCN(CC(=O)[O-])CC1.[Gd+3] (stereo not drawn)	-2.95
CC(C)c1ccc(C(=O)c2cccs2)c(SCCCCCCCCN(C)C)n1	77
Cc1cc(OCC(=O)O)cc(C)c1Cc1ccc(O)c(C(C)C)c1	-1.53
CC(C)COCC(CN(Cc1ccccc1)c1ccccc1)N1CCCC1 (stereo not drawn)	66.8
CCN(Cc1ccccc1)C(=O)Cn1c(=O)n(C)c2cnc(-c3ccccc3)nc21	-3.61
COc1cc2c(cc1OC(C)C)[C@H](c1ccc(Cl)cc1)N(c1ccc(N(C)C[C@H]3CC[C@H](N4CCN(C)C(=O)C4)CC3)cc1)C(=O)C2	19.8
COc1ccc(-c2nc3cc(C4=NNC(=O)CC4C)ccc3[nH]2)cc1 (stereo not drawn)	0.03
CCCn1c(=O)[nH]c2nc(-c3ccc(S(=O)(=O)N4CCN(c5ccc(Cl)cc5)CC4)cc3)[nH]c2c1=O	-1.38
NCC(=O)Nc1ccc(-n2nc(C(F)(F)F)cc2-c2ccc3c(ccc4ccccc43)c2)cc1	38.8
CO[C@H]1C[C@H](O[C@H]2CC[C@@]3(C)[C@H](CC[C@@H]4[C@@H]3CC[C@]3(C)[C@@H](C5=CC(=O)OC5)[C@@H](OC(C)=O)C[C@]43O)C2)O[C@@H](C)[C@@H]1O	-2.23
COc1ccc(-c2cnc3c(-c4cccc5ncccc45)cnn3c2)cc1	-5.17
NS(=O)(=O)c1cc2c(cc1Cl)N=CNS2(=O)=O	-0.42
COc1ccccc1CC(=N)N1C[C@@H]2C(=O)CCC(c3ccccc3)(c3ccccc3)[C@@H]2C1	-1.05
CNC(=O)[C@@H](Cc1ccccc1)N(C)C(=O)[C@@H](Cc1ccc2ccccc2c1)N(C)C(=O)/C=C/CC(C)(C)N	4.05
COc1nccc(-c2c(-c3ccc(F)cc3)ncn2[C@H]2CC[C@H](O)CC2)n1	-2.01

SMILES	result_ITMP [%]
CNS(=O)(=O)Cc1ccc2[nH]cc(CCN(C)C)c2c1	-1.88
O=c1c(O)c(-c2ccc(O)c(O)c2)oc2cc(O)ccc12	-3.47
COc1c(C)cnc(Cn2cc(C#CCC(C)(C)O)c3c(Cl)nc(N)nc32)c1C	-0.95
COc1cc2ncnc(Oc3cccc(NC(=O)Nc4cc(C(C)(C)C(F)(F)F)on4)c3)c2cc1OC	-6.16
N[C@@]1(C(=O)O)CC[C@H]2[C@H](C(=O)O)[C@H]21	-2.09
O=C(CCCl)NCc1ccccc1	2.06
Cc1cccc(/C=N/Nc2cc(N3CCOCC3)n3nc(-c4ccncc4)cc3n2)c1	-0.73
OC(c1ccccc1)(c1ccccc1)C1CCNCC1	23.1
CC[C@@]1(O)C(=O)OCc2c1cc1n(c2=O)Cc2c-1nc1cc(F)c(C)c3c1c2[C@@H](N)CC3	35.9
CCCOc1ccc2c(c1)CC[C@@H]1[C@@H]2CC[C@]2(C)[C@@H](OC)CC[C@@H]12	-0.32
OCCNC1CCCc2c1[nH]c1ccc(-c3ccccc3)cc21 (stereo not drawn)	89.4
O=C(Nc1ccc(S(=O)(=O)Nc2nccs2)cc1)C(c1ccccc1)c1ccccc1	-1.38
O=C1c2ccccc2-c2c(NCCc3ccccc3)c(=O)[nH]c3cccc1c23	1.78
O=C(CCCCCCC(=O)NO)NO	-1.26
C[C@]12CCC(=O)C=C1CCC1C2CC[C@@]2(C)C1CC[C@@H]2O (stereo partly drawn)	2.46
COc1ccccc1C(=O)Nc1cccc(NC(=O)c2cccc(C)c2)c1	-8.43
FC(F)(F)c1ccc(CNc2ccc(Cc3c[nH]c4ncc(Cl)cc34)cn2)cn1	-2.48
Cn1c(=O)c2[nH]cnc2n(C)c1=O	-6.01
CCC/C=C1\OC(=O)C2=C1CCC=C2	-5.44
CCN1C(C)(C)CC(Oc2ccc(C(=O)Nc3ccc(NC(=O)Nc4cc(C(C)(C)C)on4)cc3)nc2)CC1(C)C	1.64
CS(=O)(=O)c1ccc(C2=C(c3ccccc3)C(=O)OC2)cc1	-2.07
Oc1ccc(Cl)c2c1CCC2	-3.76
COc1ccc(N(C)c2nc(C)nc3ccccc23)cc1	-0.74
CSCC[C@H](NC(=O)[C@H](CC(C)C)NC(=O)CNC(=O)[C@H](Cc1ccccc1)NC(=O)[C@H](Cc1ccccc1)NC(=O)[C@H](CCC(N)=O)NC(=O)[C@H](CCC(N)=O)NC(=O)[C@@H]1CCCN1C(=O)[C@H](CCCCN)NC(=O)[C@@H]1CCCN1C(=O)[C@@H](N)CCCNC(=N)N)C(N)=O	-6.88
CC(=O)c1cc([N+](=O)[O-])c(Sc2cccc(Cl)c2Cl)s1	-7.01
C#C[C@]1(O)CC[C@H]2[C@@H]3CCc4cc(OC5CCCC5)ccc4[C@H]3CC[C@@]21C	0.64
CN(C)CCC=C1c2ccccc2CCc2ccccc21	39.7
